Data published in PubChem BioAssay AID686978 (National Center for Advancing Translational Sciences (NCATS), 2013).
Screen size: about 420,000 compounds; about 64,000 (15%) were called active. The shares of active, inactive and inconclusive entries below differ from those in the screen. Calls come from the whole dose curve; as a rule, active = well fitted inhibition curve with a large enough effect; inconclusive = small, poorly fitted or top-dose-only effect; inactive = flat fitted curve, though single readings scatter. Potencies of inconclusive entries are left out as doubtful fits.

Assay: qHTS for Inhibitors of human tyrosyl-DNA phosphodiesterase 1 (TDP1): qHTS in cells in absence of CPT; note: nearly all actives have a fitted effect of over 55% in size
Conditions: DT40 Tdp1-/- hTDP1 cells, no CPT, ATP luminescence, 48 h; activity change, negative = growth inhibition: at 46.2 µM (top of the series) unless noted
Method in brief: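 A cellular qHTS used chicken DT40 cells lacking endogenous Tdp1 but carrying stably transfected human TDP1. Compounds were applied without camptothecin, and cell growth kinetics were judged by ATP-dependent luminescence after ≥48 hr.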
% is set by controls: 0 for no effect and ±100 for the full control effect; potency is the fitted concentration of half-maximal effect; tags give direction and shape of the fitted curve.

| Compound | activity change, negative = growth inhibition | Potency |
| --- | --- | --- |
| O=C(Oc1ccccc1F)C1CCN(C(=O)c2ccc(F)cc2)CC1 | inactive: -19.8% |  |
| COc1ccc(-c2nc(CCNC(=O)c3ccco3)cs2)cc1OC |  | active: 20.6 µM |
| Cc1ccc[n+](CC(=O)Nc2cc(C(F)(F)F)ccc2N2CCOCC2)c1 | inactive: 5.36% |  |
| CC(C)(C)Sc1nc(O)cc(=O)[nH]1 | inconclusive: -24.7% [inhibitor] |  |
| COc1ccc(NC(=O)C2CCN(S(=O)(=O)c3cccc4cccnc34)CC2)cc1 |  | inconclusive [inhibitor, single point] |
| COCCn1ccc2c(OCC(=O)Nc3cc(OC)ccc3OC)cccc2c1=O |  | active: 14.6 µM |
| CC(C)CCNC(=O)NC(=O)CSc1ccc(S(=O)(=O)N2CCOCC2)cn1 | inactive: -6.56% |  |
| CCN(Cc1ccccc1)C(=O)COC(=O)CNC(=O)c1ccc(C)s1 | inactive: 6.92% |  |
| COC(=O)c1cc(OC)c(OC)cc1NC(=S)Nc1cc(Cl)ccc1OC |  | inconclusive [inhibitor, single point] |
| Cc1ccc2nc(-c3ccc(NC(=O)CN4C(=O)c5ccccc5C4=O)cc3)sc2c1 |  | inconclusive [inhibitor, single point] |
| COc1ccccc1CNC(=O)C1CCN(S(=O)(=O)N2CCCCC2)CC1 | inactive: -13.8% |  |
| CCOc1ccc(S(=O)(=O)N(C(C)=O)c2ccc3oc(C)c(C(=O)OC)c3c2)cc1 |  | active: 0.58 µM |
| CC(C)CC(=O)Nc1ccccc1N1CCN(c2ccccc2)CC1 |  | inconclusive [inhibitor, partial curve] |
| CCCOC(=O)c1c(NC(=O)c2cc3nc(-c4ccc(OC)cc4)cc(C(F)(F)F)n3n2)sc2c1CCCC2 | inactive: -3.89% |  |
| O=Cc1c(N2CCN(c3cccc(Cl)c3)CC2)nc2ccccn2c1=O | inconclusive: -34.6% [inhibitor] |  |
| COc1cccc(NC(=O)CSc2c(C)cnc3c2c(=O)n(C)c(=O)n3C)c1 |  | inconclusive [inhibitor, single point] |
| CN(C)c1ccc(/C=C2\C=Cc3ccccc32)cc1 |  | inconclusive [inhibitor, single point] |
| O=C1N[C@@H](c2ccccc2)COC(=O)[C@@H](Cc2ccc(F)cc2)C/C=C\C[C@@H]1CC(=O)N(CCO)Cc1ccccc1 |  | active: 13 µM |
| O=C(NC(=S)Nc1ccccc1C(=O)O)c1cncc(Br)c1 |  | inconclusive [inhibitor, single point] |
| O=C(c1cc2nc(-c3ccco3)cc(C(F)(F)F)n2n1)N1CCCCCC1 |  | inconclusive [inhibitor, single point] |
| O=C(NCc1ccccn1)c1cccs1 | inactive: 1.33% |  |
| Cc1cccc(C)c1NC(=O)C(c1ccc(C(F)(F)F)cc1)n1c(=O)c(-c2ccco2)nc2ccccc21 (configuration not stated) |  | inconclusive [inhibitor, single point] |
| CC(C)(C)c1nnc2sc(SCC(O)=C(C#N)c3nc4ccccc4[nH]3)nn2c1=O |  | inconclusive [inhibitor, partial curve] |
| CN(CC(=O)NCc1ccc(F)cc1)Cc1ccc(Br)cc1 |  | inconclusive [inhibitor, partial curve] |
| O=C(CSc1ccc2c(c1)OCCO2)Nc1cccnc1Cl | inconclusive: -32.9% [inhibitor] |  |
| S=C(NCCCc1ccccc1)Nc1ccccc1Cl | inactive: -84.4% |  |

| Compound | activity change, negative = growth inhibition | Potency |
| --- | --- | --- |
| CC1CCCN(c2ccc3nc4ccccc4c(=O)n3n2)C1 (configuration not stated) |  | inconclusive [inhibitor, single point] |
| COc1cccc(NC(=O)CC2SC(=Nc3ccccc3)NC2=O)c1 (configuration not stated) |  | inconclusive [inhibitor, single point] |
| O=C(CN1CCN(c2ccccc2)CC1)Nc1ccccc1C(F)(F)F |  | inconclusive [inhibitor, partial curve] |
| COC(=O)c1c(-c2ccc(N(C)C)cc2)sc2ccc(OC)cc12 |  | active: 13 µM |
| CC(C#N)N1CCN(S(=O)(=O)c2ccc3c(c2)CCC3)CC1 (configuration not stated) | inactive: -3.02% |  |
| O=C1CC2(CCCCC2)Oc2ccc(Cl)cc21 | inactive: -12.9% |  |
| CC(C)(C)CNC(=O)C1(C)CCN1C(=O)Cc1ccc(C(C)(C)C)cc1 (configuration not stated) |  | inconclusive [inhibitor, single point] |
| COc1ccc(-c2cc([C@H]3[C@@H]4C=CCC[C@@]4(C)C(=O)N3Cc3ccccc3)ccc2F)cc1OC |  | inconclusive [inhibitor, single point] |
| Nc1nc(SCC(=O)c2ccc(Cl)cc2)c2ncn(C3OC(CO)C(O)C3O)c2n1 (configuration not stated) |  | inconclusive [inhibitor, single point] |
| O=S(=O)(NN=C(c1ccccc1)c1ccccc1)c1ccccc1 |  | inconclusive [inhibitor, single point] |
| CCOc1ccccc1NC(=O)C(=O)N/N=C/c1cc(Br)ccc1O |  | active: 10.3 µM |
| NC(=O)c1cccc(-c2coc3c(C(=O)NCc4cccnc4)cccc23)c1 |  | active: 23.1 µM |
| c1ccc(CCNC2=NCCCS2)cc1 | inactive: -1.73% |  |
| Nc1n[nH]c(=S)n1-c1ccc(Cl)cc1 |  | inconclusive [inhibitor, full curve, poor fit] |
| CS(=O)(=O)c1ccc2nc(NC(=O)Nc3ccc(Cl)cc3)sc2c1 |  | inconclusive [inhibitor, partial curve] |
| CCN(CC(=O)Nc1ccc(NC(C)=O)cc1)C(=O)Cc1ccc(Cl)c(Cl)c1 | inconclusive: -31.2% [inhibitor] |  |
| Cc1c(C)n(Cc2ccc(F)cc2)c2ccc(C(=O)NCCCN3CCOCC3)cc12 |  | active: 16.4 µM |
| Cc1cccc(C)c1NC(=O)c1cc(-c2ccccn2)nc2ccccc12 |  | inconclusive [inhibitor, single point] |
| CC(=O)Nc1ccc(/C=N/Nc2nncc3ccccc23)cc1 |  | inconclusive [inhibitor, single point] |
| COc1ccccc1N1CCN(C(=O)c2cnn(C(C)(C)C)c2C2CCN(C(=O)OC(C)(C)C)CC2)CC1 | inactive: -84.6% |  |
| CC(C)(C)c1ccc(S(=O)(=O)/C=C\C#N)cc1 |  | active: 0.531 µM |
| CC(C)N(Cc1c(O)ccc2c(=O)c(-c3ccc(Cl)cc3)coc12)C(C)C |  | active: 8.2 µM |
| CCCC(=O)Nc1cccc(-c2nc3ncccc3o2)c1 | inactive: -20.3% |  |
| COc1ccccc1NS(=O)(=O)c1cc(NC(=O)C2CCC2)ccc1N1CCCCC1 |  | inconclusive [inhibitor, single point] |
| CCC(C)CCCCNC1=NCCS1 (configuration not stated) |  | inconclusive [inhibitor, single point] |
| Cc1ccc(-n2ncc3c(=O)[nH]c(SCC(=O)N4CC(=O)Nc5ccccc54)nc32)cc1 | inactive: -8.13% |  |

| Compound | activity change, negative = growth inhibition | Potency |
| --- | --- | --- |
| CCn1c(C)nc2cc(C(=O)N/N=C/c3ccc(N4CCOCC4)cc3)ccc21 |  | inconclusive [inhibitor, single point] |
| O=C(N/N=C/c1cccc(Oc2ccccc2)c1)c1cccc(Br)c1 |  | active: 20.6 µM |
| COc1ccccc1N1CCN(Cc2cc(OC)c3c(c2)OCO3)CC1 |  | inconclusive [inhibitor, partial curve] |
| O=C1NC[C@@H](CCCCN2CCN(CC3CCCCC3)C(=O)C2=O)N(CC2CCCCC2)C1=O | inactive: -13.2% |  |
| CN(C)S(=O)(=O)c1cc(NC(=O)Cn2ccsc2=N)ccc1Cl | inactive: -10.3% |  |
| COc1ccc2c(c1)C(=C(C#N)C#N)C(=O)N2CCc1ccccc1 |  | active: 14.6 µM |
| COc1cc(C)c2ccccc2n1 | inactive: -0.695% |  |
| COC(=O)c1cc(O)cc(OC)c1Oc1cc(C)cc(O)c1C(=O)O |  | active: 1.03 µM |
| CCc1cc2cc(C(=O)N3CCN(c4ccccc4)CC3)sc2s1 |  | inconclusive [inhibitor, single point] |
| CCCc1nnc(NC(=O)CN2CCN(C)CC2)s1 | inactive: -7.83% |  |
| Cc1oc(-c2ccccc2Cl)nc1CS(=O)(=O)CC(=O)NC(C)CCc1ccccc1 (configuration not stated) |  | inconclusive [inhibitor, single point] |
| CCN(CC)CCCNC(=O)/C(=C\c1cccn1C)NC(=O)c1cccs1 | inactive: -3.45% |  |
| CC(=O)C1=C(O)C(=O)N(C)C1c1ccccc1[N+](=O)[O-] (configuration not stated) | inactive: -26.2% |  |
| COc1ccc(NC(=O)CC2C(=O)N(c3cccc(OC)c3)C(=O)N2Cc2cccnc2)cc1 (configuration not stated) |  | inconclusive [inhibitor, single point] |
| Cc1ccc(-n2c(CNc3ccc(F)cc3)nnc2SCC(=O)NCc2ccco2)cc1 |  | inconclusive [inhibitor, single point] |
| CN(C)S(=O)(=O)c1ccc(Cl)c(C(=O)Nc2cccc3ncccc23)c1 |  | inconclusive [inhibitor, partial curve, poor fit] |
| O=C(c1ccc(Cl)cc1)N1CCC(O)(CSc2ccc(Cl)cc2Cl)CC1 |  | inconclusive [inhibitor, single point] |
| COC(=O)c1ccc(NC(=S)NC(=O)c2cc(-c3ccccc3)nc3ccccc23)cc1 |  | inconclusive [inhibitor, single point] |
| COc1ccc(OC)c(NC(=O)C(NS(=O)(=O)c2ccc3c(c2)CCCC(=O)N3)C(C)C)c1 (configuration not stated) | inactive: -27.7% |  |
| O=C(COC(=O)c1ncc(Cl)c(Cl)c1Cl)NC1CCS(=O)(=O)C1 (configuration not stated) | inactive: 0.826% |  |
| CCOC(=O)c1cc[nH]c1C | inactive: 16.4% |  |
| C1CCc2c(nc3nnnn3c2N2CCOCC2)C1 | inactive: -19.4% |  |
| COc1ccccc1NC(=O)C1CCCN(c2nc(C)cc(C)n2)C1 (configuration not stated) | inactive: -0.22% |  |
| COc1ccc(S(=O)(=O)NCCc2cn3nc(C)c(C)nc3n2)cc1C | inactive: 12.8% |  |
| O=C1CN(CCN2CC(=O)N(Cc3ccccc3)C(=O)C2)CC(=O)N1Cc1ccccc1 |  | inconclusive [inhibitor, partial curve] |
